# Data taken from PubChem BioAssay AID624417 (National Center for Advancing Translational Sciences (NCATS), 2012).
# Out of some 410,000 compounds screened, about 6,400 (1.6%) were called active. The inconclusive results got no clear call from the source; some entries with a clear call stand among them for comparison. Calls come from the whole dose curve; as a rule, active = well fitted inhibition curve with a large enough effect; inconclusive = small, poorly fitted or top-dose-only effect; inactive = no such curve, though single readings can be large or run the other way. No potency is given beside an inconclusive call; the fits are too rough.
# Biological target: Glucagon-like peptide 1 receptor (Homo sapiens) (UniProt P43220)
# UniProt P43220, sequence (P43220 whole entry, looked up): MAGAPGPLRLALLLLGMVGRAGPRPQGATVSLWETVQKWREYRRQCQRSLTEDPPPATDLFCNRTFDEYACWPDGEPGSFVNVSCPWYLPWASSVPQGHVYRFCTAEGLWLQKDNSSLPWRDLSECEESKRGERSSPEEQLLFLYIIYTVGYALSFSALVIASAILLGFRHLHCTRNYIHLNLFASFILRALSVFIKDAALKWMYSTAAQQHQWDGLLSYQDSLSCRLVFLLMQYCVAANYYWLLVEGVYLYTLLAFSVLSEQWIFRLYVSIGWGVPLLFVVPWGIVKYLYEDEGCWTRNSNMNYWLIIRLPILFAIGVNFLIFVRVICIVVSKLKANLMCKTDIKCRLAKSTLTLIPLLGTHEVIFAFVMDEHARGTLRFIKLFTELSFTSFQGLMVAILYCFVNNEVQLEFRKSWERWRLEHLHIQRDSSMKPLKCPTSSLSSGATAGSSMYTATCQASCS
# Assay: qHTS of GLP-1 Receptor Inverse Agonists (Inhibition Mode); note: nearly all actives have a fitted effect of over 55% in size
# Conditions: HEK293 GLP-1R CRE-luciferase, luminescence, 24 h, GLP-1R form is constitutively active; activity change, negative = inhibition: at 38.3 µM (top of the series) unless noted
# In short: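 HEK293 cells stably co-expressing a cAMP-responsive luciferase reporter and constitutively active GLP-1R were seeded, incubated 12 h, then exposed to compounds for 24 h at 37 C. Luminescence was read 12 min after detection reagent; inverse agonists lower signal.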
# % is set by controls: 0 for no effect and ±100 for the full control effect; potency is the fitted concentration of half-maximal effect; tags give direction and shape of the fitted curve.
SMILES,Potency,"activity change, negative = inhibition"
S=C1SCN(Cc2ccccn2)CN1Cc1ccco1,"inconclusive [inhibitor, partial curve, poor fit]",–
CCCCNC(=O)CCn1c(=O)c2ccccc2n(Cc2ccccc2C#N)c1=O,–,inactive: 8.53%
CN(Cc1ccc(Cl)c(Cl)c1)C(=O)c1ccccc1SCC(=O)N1CCCC1,"inconclusive [inhibitor, partial curve, poor fit]",–
Cc1cc(C)c(OCC(=O)Nc2cccc(NC(=O)c3ccco3)c2)c(Br)c1,"inconclusive [inhibitor, partial curve, poor fit]",–
Cc1ccc(CNC(=O)CSCc2ccc(F)cc2)cc1,"inconclusive [inhibitor, single point]",–
CCc1cccc(NC(=O)COC(=O)c2c(-c3ccccc3)noc2C)c1,"inconclusive [inhibitor, single point]",–
CCOc1cccc(CC(=O)N2CCc3c([nH]c4ccccc34)C2c2ccc(F)cc2)c1OCC (stereo unspecified),"inconclusive [inhibitor, partial curve, poor fit]",–
O=C(c1cc(-c2ccccc2)n[nH]1)N1CCc2c([nH]c3ccccc23)C1c1ccccn1 (stereo unspecified),"inconclusive [inhibitor, partial curve, poor fit]",–
Cc1ccc2nc(NC(=O)C3CCCN3C(=O)OC(C)(C)C)sc2c1 (stereo unspecified),"inconclusive [inhibitor, single point]",–
CCOc1ccc(N(CC)S(=O)(=O)N2CCCC(C(=O)NCc3ccccc3Cl)C2)cc1 (stereo unspecified),"inconclusive [inhibitor, single point]",–
O=C(Nc1cc(C(F)(F)F)ccc1Cl)C(NCc1ccccc1)c1ccccc1 (stereo unspecified),active: 3.55 µM,–
Cc1nc(N2CCN(c3ccccn3)CC2)c2c(C)c(C(=O)Nc3ccc(F)cc3Cl)sc2n1,"inconclusive [inhibitor, single point]",–
O=C(COc1ccc(S(=O)(=O)NC2CCCCC2)cc1)Nc1ccc(C(F)(F)F)cc1,"inconclusive [inhibitor, single point]",–
COc1cc(OC)c(-c2nnc(-c3ccc(OC)c(OC)c3OC)o2)cc1OC,–,inactive: 0%
CCOC(=O)c1cc(C#N)c(N2CCN(c3ccccn3)CC2)nc1-c1ccccc1,"inconclusive [inhibitor, partial curve, poor fit]",–
O=C(Cc1ccc(Cl)cc1)NCCc1ccc(F)cc1,"inconclusive [inhibitor, single point]",–
Cc1c(C(=O)NCc2ccccc2F)oc2ccccc12,"inconclusive [inhibitor, single point]",–
Cc1cc(N2CCCCC2)nc2ccc(NC(=O)/C=C/c3ccccc3OC(C)C)cc12,"inconclusive [inhibitor, partial curve, poor fit]",–
COc1ccccc1NC(=O)c1cccc(S(=O)(=O)N2CCN(Cc3ccccc3)CC2)c1,"inconclusive [inhibitor, single point]",–
Cc1c(C(=O)NCCc2ccc(Cl)cc2)sc2nc3n(c(=O)c12)CCC3,"inconclusive [inhibitor, partial curve, poor fit]",–
Cc1cccc(CSc2cn(CC(=O)N3CCCC3)c3ccccc23)c1,"inconclusive [inhibitor, partial curve, poor fit]",–

SMILES,Potency,"activity change, negative = inhibition"
CN(c1ccccc1)S(=O)(=O)c1ccc(C(=O)NCCc2ccc(F)cc2)cc1,"inconclusive [inhibitor, single point]",–
S=C(NCCc1ccc(Cl)cc1)NC1CCCCC1,"inconclusive [inhibitor, single point]",–
CN(C)c1cc(O)c(C(=S)Nc2ccccc2)c(N(C)C)c1,"inconclusive [inhibitor, partial curve]",–
C[C@@H](OC(=O)N(C)Cc1ccccc1)[C@H]1O[C@]2(C)CCCC[C@H]1O2,"inconclusive [inhibitor, single point]",–
CCCCCCn1c(=O)c(F)cn(Cc2ccc(OC)c([N+](=O)[O-])c2)c1=O,"inconclusive [inhibitor, partial curve, poor fit]",–
COc1cccc(-c2nc(CS(=O)(=O)CC(=O)NC3CCC(C)CC3)c(C)o2)c1 (stereo unspecified),"inconclusive [inhibitor, single point]",–
CCCn1c(C(C)Nc2nc(-c3ccc(C)cc3)cs2)nc2cc(Cl)c(Cl)cc21 (stereo unspecified),"inconclusive [inhibitor, single point]",–
S=C1SC2(CCCCCC2)NC2=C1CCCCC2,"inconclusive [inhibitor, single point]",–
O=C(CC1Sc2ccccc2NC1=O)NNc1cccc(Cl)c1Cl (stereo unspecified),active: 2 µM,–
COc1ccc(Br)cc1CN(C)CC(=O)Nc1cc(Cl)ccc1Cl,–,inactive: 0.767%
O=C(NCC(c1ccco1)N1CCCCC1)c1cccs1 (stereo unspecified),–,inactive: 4.72%
O=C1CC(SC(=Nc2ccccc2)Nc2ccccc2)C(=O)N1c1ccc(Cl)c(Cl)c1 (stereo unspecified),"inconclusive [inhibitor, full curve, poor fit]",–
CC(Sc1ccc(Cl)cc1)C(=O)Nc1ccccc1-c1ccccc1 (stereo unspecified),"inconclusive [inhibitor, single point]",–
Cc1ccccc1CNC(=O)Cn1ncn2nc(-c3cccs3)cc2c1=O,–,inactive: 10.5%
CCOc1ccc(-c2nc(CSCC(=O)N3CCN(c4cccc(OC)c4)CC3)c(C)o2)cc1,"inconclusive [inhibitor, partial curve, poor fit]",–
CCc1ccc2oc(-c3cccc(NC(=O)c4ccc(N5CCC(C)CC5)c([N+](=O)[O-])c4)c3)nc2c1,–,inactive: 1.91%
CN(C)CCCN(C(=O)c1ccco1)c1nc2ccc(F)cc2s1,"inconclusive [inhibitor, partial curve]",–
O=C1c2ccccc2NC(c2ccc(F)cc2)N1Cc1ccccc1 (stereo unspecified),"inconclusive [inhibitor, partial curve, poor fit]",–
OCc1ccc(-c2nn(Cc3ccccc3)c3ccccc23)o1,"inconclusive [inhibitor, full curve, poor fit]",–
COc1ccc(CN(C)CC(=O)NC(=O)NCc2ccccc2)c(OC)c1,"inconclusive [inhibitor, single point]",–
Cc1c(N2C(=O)/C(=C/c3ccc(N(C)C)cc3)N(C)C2=S)c(=O)n(-c2ccccc2)n1C,"inconclusive [inhibitor, single point]",–

SMILES,Potency,"activity change, negative = inhibition"
CC1CCCN(Cc2c(O)ccc3c(=O)c(-c4nc5ccccc5s4)c(N)oc23)C1 (stereo unspecified),"inconclusive [inhibitor, single point]",–
Cc1nnc(NC(=O)CSc2ncc(-c3ccccc3)[nH]2)s1,–,inactive: 17.7%
O=C1c2ccccc2C2=Nc3ccccc3SC(c3ccc(Cl)cc3)C12 (stereo unspecified),active: 12.6 µM,–
Cc1cc(C(=O)N2CCN(C(c3ccccc3)c3ccccc3)CC2)no1,"inconclusive [inhibitor, partial curve, poor fit]",–
COc1cnc(-c2ccccn2)nc1Oc1ccc(C(C)(C)C)cc1,"inconclusive [inhibitor, partial curve, poor fit]",–
O=C(Cc1cccc(F)c1)N1CCCC(CO)(Cc2ccc(F)cc2F)C1 (stereo unspecified),"inconclusive [inhibitor, single point]",–
C=CCn1c(COc2ccccc2)nnc1SCC(=O)C(C)(C)C,"inconclusive [inhibitor, single point]",–
Cc1cccc(NC(=O)N2CCc3c(sc4c3CCCC4)C2c2ccc(F)cc2)c1 (stereo unspecified),"inconclusive [inhibitor, partial curve, poor fit]",–
O=C(c1cc(S(=O)(=O)N2CCOCC2)ccc1F)N(CCc1ccccc1)Cc1ccccc1,active: 10 µM,–
COCCN(Cc1nc2ccccc2c(=O)[nH]1)C(=O)COc1c(C)cc(Cl)cc1C,"inconclusive [inhibitor, partial curve, poor fit]",–
Cc1ccc(S(=O)(=O)c2nnn3c2nc(N2CCN(c4ccc(F)cc4)CC2)c2cc(Cl)ccc23)cc1C,–,inactive: 4.24%
Cc1ccc(S(=O)(=O)Nc2cc(C(=O)NCCN3CCCC3)ccc2N2CCCCC2)cc1,"inconclusive [inhibitor, partial curve]",–
CCOc1ccccc1CNC(=O)c1ccc(Sc2ccc(Cl)cc2)c(NC(C)=O)c1,"inconclusive [inhibitor, partial curve, poor fit]",–
COc1c(C)cccc1C(=O)NC(=S)Nc1ccccc1N1CCCC1,"inconclusive [inhibitor, partial curve, poor fit]",–
CN(c1ccccc1)S(=O)(=O)c1ccc(Cl)c(C(=O)NCc2ccccc2CN2CCCC2)c1,"inconclusive [inhibitor, single point]",–
CCOc1ccc(N2C(=O)C3=C(C(c4ccc(Cl)cc4)=NCCN3)C2c2cccnc2)cc1 (stereo unspecified),"inconclusive [inhibitor, single point]",–
CC1CC(Nc2ccccc2)c2ccccc2N1C(=O)c1ccncc1 (stereo unspecified),"inconclusive [inhibitor, partial curve, poor fit]",–
CN1CCN(CCOc2ccc(Cl)c(Cl)c2)CC1,"inconclusive [inhibitor, partial curve, poor fit]",–
CN(C)CCCN(C(=O)c1ccc(S(=O)(=O)N(C)C)cc1)c1nc2ccc(F)cc2s1,"inconclusive [inhibitor, single point]",–
